# Laboratory results: PubChem BioAssay AID651820 (National Center for Advancing Translational Sciences (NCATS), 2012)
# The campaign covered roughly 340,000 compounds. About 12,000 (3.5%) were called active. Inconclusive results, whose numbers are uncertain, are shown with a selection of clear calls. The call rests on the fitted dose curve; in most records, active means well fitted inhibition curve with a large enough effect; inconclusive means small, poorly fitted or top-dose-only effect, or another doubt; inactive means no such curve, though single readings can be large or run the other way. No potency is given beside an inconclusive call; the fits are too rough.
# Assay: qHTS Assay for Inhibitors of Hepatitis C Virus (HCV)
# Conditions: Huh7.5.1 HCVcc-Cre (HCVcc is cell-culture hepatitis C virus) infection, luciferase reporter, 44 h; activity change, negative = inhibition: at 41.8 µM (top of the series) unless noted
# Summary of the method: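 Infectious HCV cell culture screen: compound-treated cells (1,000/well, pre-plated 4 h) are infected with HCVcc-Cre at roughly 0.5 moi and grown 44 h. Infection is quantified by luciferase signal after 15 min substrate incubation at room temperature.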
# On the % scale 0 is the no-effect control and ±100 the full control effect; potency means the concentration at half of the fitted maximal effect; tags describe the fitted curve by direction and shape.
Structure (SMILES),Potency,"activity change, negative = inhibition"
CSc1nc2ccccc2cc1/C=C(\C#N)c1cccc(C)c1,"inconclusive [inhibitor, single point]",
CC1C/C(=C/c2cccn2C)C(=O)/C(=C/c2cccn2C)C1 (stereo not given),active: 6.31 µM,
COC(=O)c1coc(-c2ccc(OC)cc2)c1C(=O)OC,"inconclusive [inhibitor, single point]",
CCOC(=O)Cc1csc(NC(=O)NC2(C(F)(F)F)Oc3cc(Cl)c(Cl)cc3O2)n1,"inconclusive [inhibitor, partial curve]",
CC(=O)c1c(C)oc2ccc(N(C(C)=O)S(=O)(=O)c3ccc(F)cc3C)cc12,"inconclusive [inhibitor, single point]",
CCOC(=O)c1cn(CC2CC2)c2cc(F)c(F)cc2c1=O,active: 14.1 µM,
Cc1ccc(S(=O)(=O)NCCC2=CCCCC2)cc1C(N)=O,"inconclusive [inhibitor, partial curve]",
COc1nc(-c2ccccc2)ccc1-c1noc(-c2ccco2)n1,"inconclusive [inhibitor, single point]",
Cc1nn2c(NCCN(C)C)c3c(nc2c1-c1ccccc1)CCCC3,active: 7.08 µM,
COc1ccc(C2C(C(=O)NCc3ccco3)c3ccccc3C(=O)N2C)cc1 (stereo not given),,inactive: -16.7%
CC(Sc1nc(N)c2c3c(sc2n1)CSC(C)(C)C3)C(=O)Nc1ccccc1 (stereo not given),"inconclusive [inhibitor, single point]",
CCCCn1c(SCC(=O)NCc2ccco2)nc2ccccc2c1=O,"inconclusive [inhibitor, full curve]",
COc1cc2c(cc1OC)C(CC#N)=NC(C)(C)C2,"inconclusive [inhibitor, partial curve]",
CCN(c1ccccc1)S(=O)(=O)c1ccc(OC)c(N=N/C(C(=O)Nc2ccccc2)=C(/C)O)c1,"inconclusive [inhibitor, single point]",
O=C(NN=Cc1ccccc1)c1ccccc1,"inconclusive [inhibitor, single point]",
Cc1ccc(C)c(N2CCN(C(=O)CCCn3c(=O)c4cccn4c4cccnc43)CC2)c1,"inconclusive [inhibitor, partial curve]",
O=C(CN1CCN(c2ccc(C(F)(F)F)cn2)CC1)Nc1ccc2c(c1)OCO2,"inconclusive [inhibitor, single point]",
Cc1ccc(-c2noc(CCC(=O)Nc3cc(C)ccn3)n2)cc1,,inactive: 22.4%
COc1ccc(-c2[nH]ncc2CN(C)C(C)c2cccs2)c(F)c1 (stereo not given),,inactive: -11%
CCn1c2ccccc2c2cc(NC(=O)CN3CCCC3)ccc21,"inconclusive [inhibitor, single point]",
Cc1cccc(C)c1N1CCN(CCn2c(=S)[nH]c3ccccc3c2=O)CC1,"inconclusive [inhibitor, single point]",
CCOc1cc(NC(=S)NCC2CCCO2)c(OCC)cc1NC(=O)c1ccccc1C (stereo not given),"inconclusive [inhibitor, partial curve]",
O=C(c1ccc(Cl)c(S(=O)(=O)Nc2ccccc2C(=O)N2CCc3ccccc3C2)c1)N1CCc2ccccc2C1,"inconclusive [inhibitor, single point]",

Structure (SMILES),Potency,"activity change, negative = inhibition"
Cc1cc(C)c(-n2c(SCc3nc4ccccc4s3)n[nH]c2=O)c(C)c1,,inactive: -9.81%
C=CCC[C@@H](Cc1ccc(F)cc1)C(=O)O[C@H](CNC(=O)[C@@H](CC=C)CC(=O)N[C@H](CO)Cc1ccccc1)c1ccccc1,,inactive: 34%
COc1cccc(-c2ncc3ccccc3c2COC(=O)N2CCCCC2)c1,"inconclusive [inhibitor, single point]",
COc1cccc(/C=N/NC(=O)c2cc3c(OC)cccc3[nH]2)c1OC,"inconclusive [inhibitor, full curve, poor fit]",
Cc1nn(C)c(C)c1/C=C/C(=O)O,,inactive: 7.9%
Cc1ccc(C[n+]2ccccc2)cc1,active: 4.47 µM,
Cc1onc(-c2ccccc2Cl)c1C(=O)NCc1ccccc1F,,inactive: 5.86%
COc1ccc(-n2nc([N+](=O)[O-])c(=NCCc3ccccc3)n2O)cc1,"inconclusive [inhibitor, single point]",
O=C(CCn1cnnn1)Nc1cccc(F)c1,,inactive: 17.4%
OCCN1CCN(C2CCC(c3ccc(F)cc3)c3ccc(F)cc32)CC1 (stereo not given),active: 3.98 µM,
Cc1ccc(NC(=S)NC(=O)c2ccc(F)cc2)cc1S(=O)(=O)Nc1ccccc1Cl,"inconclusive [inhibitor, single point]",
N#C/C(=C\C=C\c1ccccc1)C(=O)NCc1cccnc1,"inconclusive [inhibitor, partial curve]",
COc1cccc(CNC(=O)CN(c2ccc(C(C)C)cc2)S(=O)(=O)c2c(C)noc2C)c1,"inconclusive [inhibitor, single point]",
Cc1cc(C(F)(F)F)nc(SCC(=O)NC2CC3CCC2C3)n1 (stereo not given),,inactive: -0.374%
N#CC1=C(N)OC2=C(C(=O)CC(c3ccco3)C2)C1c1ccc(OCc2c(F)cccc2Cl)cc1 (stereo not given),"inconclusive [inhibitor, single point]",
OC(CNC1CCCC1)COc1c(F)cc(Br)cc1F (stereo not given),,inactive: -27.7%
CCn1c(Cn2nnc(-c3ccccc3)n2)nnc1SCC(=O)Nc1ccc(N(C)C)cc1,"inconclusive [inhibitor, full curve, poor fit]",
CC(C)C(=O)NCCc1nc(-c2ccccc2Cl)no1,,inactive: 3.25%
CC(C)NS(=O)(=O)c1ccc(OCC(=O)Nc2ccc3c(c2)OCO3)cc1,"inconclusive [inhibitor, single point]",
CCCc1cnc(N2CCN(C(=O)c3ccc(OC)cc3)CC2)nc1,"inconclusive [inhibitor, single point]",
CN=C(Nc1ccccc1OC)SC1CC(=O)N(c2ccc(C(=O)OC)cc2)C1=O (stereo not given),"inconclusive [inhibitor, single point]",
Cc1ccc(OCCOc2cccc3ccc(C)nc23)c([N+](=O)[O-])c1,"inconclusive [inhibitor, partial curve]",
